Source: the supplement of paper PMC8728848
The list shows a part of the results.

Columns and labels:
Assay in all cases: glycan array binding signal (z-score within array); higher = stronger binding
Conditions in all cases: glycan notation: IUPAC condensed, linker removed
[1] = molecular target: Fuc(a1-3)[Gal(b1-4)]Glc6S
Summary of the method: (§1)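 Columns mapping to the same glycan were averaged after glycan names were converted to IUPAC-condensed notation. The data come from 3228 arrays in the Consortium for Functional Glycomics database, limited to those with an available protein sequence. Binding is reported as a within-array Z-score averaged across arrays of one protein sequence and across linkers.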

[2] = molecular target: Fuc(a1-3)[Gal(b1-4)]GlcNAc
Summary of the method: as §1

[3] = molecular target: Fuc(a1-3)[Gal(b1-4)]GlcNAc(b1-2)Man(a1-3)[Fuc(a1-3)[Gal(b1-4)]GlcNAc(b1-2)Man(a1-6)]Man(b1-4)GlcNAc(b1-4)GlcNAc
Summary of the method: as §1

[4] = molecular target: Fuc(a1-3)[Gal(b1-4)]GlcNAc(b1-2)Man(a1-6)[Gal(b1-4)GlcNAc(b1-2)Man(a1-3)]Man(b1-4)GlcNAc(b1-4)GlcNAc
Summary of the method: as §1

[5] = molecular target: Fuc(a1-3)[Gal(b1-4)]GlcNAc(b1-3)Gal(b1-3)[Fuc(a1-4)]GlcNAc
Summary of the method: as §1

[6] = molecular target: Fuc(a1-3)[Gal(b1-4)]GlcNAc(b1-4)Gal(b1-4)[Fuc(a1-3)]GlcNAc
Summary of the method: as §1

[7] = molecular target: Fuc(a1-3)[Gal(b1-4)]GlcNAc(b1-4)Gal(b1-4)[Fuc(a1-3)]GlcNAc(b1-4)Gal(b1-4)[Fuc(a1-3)]GlcNAc
Summary of the method: as §1

[8] = molecular target: Fuc(a1-3)[Gal(b1-4)]GlcNAc6S
Summary of the method: as §1

[9] = molecular target: Fuc(a1-3)[Gal3S(b1-4)]Glc6S
Summary of the method: as §1

[10] = molecular target: Fuc(a1-3)[Gal3S(b1-4)]GlcNAc
Summary of the method: as §1

[11] = molecular target: Fuc(a1-3)[Gal3S(b1-4)]GlcNAc6S
Summary of the method: as §1

[12] = molecular target: Fuc(a1-3)[GalNAc(b1-4)]GlcNAc
Summary of the method: as §1

[13] = molecular target: Fuc(a1-3)[Neu5Ac(a2-3)]Gal(b1-4)GlcNAc(b1-3)GalNAc
Summary of the method: as §1

[14] = molecular target: Fuc(a1-4)GlcNAc
Summary of the method: as §1

[15] = molecular target: Fuc(b1-3)GlcNAc
Summary of the method: as §1

[16] = molecular target: Gal(a1-2)Gal
Summary of the method: as §1

[17] = molecular target: Gal(a1-3)Gal
Summary of the method: as §1

[18] = molecular target: Gal(a1-3)Gal(b1-3)GlcNAc
Summary of the method: as §1

[19] = molecular target: Gal(a1-3)Gal(b1-4)Glc
Summary of the method: as §1

[20] = molecular target: Gal(a1-3)Gal(b1-4)GlcNAc
Summary of the method: as §1

[21] = molecular target: Gal(a1-3)Gal(b1-4)[Fuc(a1-3)]GlcNAc
Summary of the method: as §1

[22] = molecular target: Gal(a1-3)Gal(b1-4)[Fuc(a1-3)]GlcNAc(b1-2)Man(a1-3)[Gal(a1-3)Gal(b1-4)[Fuc(a1-3)]GlcNAc(b1-2)Man(a1-6)]Man(b1-4)GlcNAc(b1-4)GlcNAc
Summary of the method: as §1

[23] = molecular target: Gal(a1-3)GalNAc
Summary of the method: as §1

[24] = molecular target: Gal(a1-3)[Gal(a1-4)]Gal(b1-4)GlcNAc
Summary of the method: as §1

[25] = molecular target: Gal(a1-4)Gal(b1-4)Glc
Summary of the method: as §1

[26] = molecular target: Gal(a1-4)Gal(b1-4)GlcNAc
Summary of the method: as §1

[27] = molecular target: Gal(a1-4)Gal(b1-4)GlcNAc(b1-3)Gal(b1-4)Glc
Summary of the method: as §1

[28] = molecular target: Gal(a1-4)GlcNAc
Summary of the method: as §1

[29] = molecular target: Gal(a1-6)Glc
Summary of the method: as §1

[30] = molecular target: Gal(b1-2)Gal
Summary of the method: as §1

[31] = molecular target: Gal(b1-3)Gal
Summary of the method: as §1

[32] = molecular target: Gal(b1-3)Gal(b1-4)GlcNAc
Summary of the method: as §1

[33] = molecular target: Gal(b1-3)Gal(b1-4)GlcNAc(b1-2)Man(a1-3)[Gal(b1-3)Gal(b1-4)GlcNAc(b1-2)Man(a1-6)]Man(b1-4)GlcNAc(b1-4)GlcNAc
Summary of the method: as §1

[34] = molecular target: Gal(b1-3)GalNAc
Summary of the method: as §1

[35] = molecular target: Gal(b1-3)GalNAc(a1-3)[Fuc(a1-2)]Gal(b1-4)Glc
Summary of the method: as §1

[36] = molecular target: Gal(b1-3)GalNAc(a1-3)[Fuc(a1-2)]Gal(b1-4)GlcNAc
Summary of the method: as §1

[37] = molecular target: Gal(b1-3)GalNAc(b1-3)Gal(a1-4)Gal(b1-4)Glc
Summary of the method: as §1

[38] = molecular target: Gal(b1-3)GalNAc(b1-4)Gal(b1-4)Glc
Summary of the method: as §1

[39] = molecular target: Gal(b1-3)GalNAc(b1-4)[Neu5Ac(a2-3)]Gal(b1-4)Glc
Summary of the method: as §1

[40] = molecular target: Gal(b1-3)GlcNAc
Summary of the method: as §1

[41] = molecular target: Gal(b1-3)GlcNAc(b1-2)Man(a1-3)[Gal(b1-3)GlcNAc(b1-2)Man(a1-6)]Man(b1-4)GlcNAc(b1-4)GlcNAc
Summary of the method: as §1

[42] = molecular target: Gal(b1-3)GlcNAc(b1-2)Man(a1-3)[Gal(b1-3)GlcNAc(b1-2)Man(a1-6)]Man(b1-4)GlcNAc(b1-4)[Fuc(a1-6)]GlcNAc
Summary of the method: as §1

[43] = molecular target: Gal(b1-3)GlcNAc(b1-3)Gal(b1-3)GlcNAc
Summary of the method: as §1

[44] = molecular target: Gal(b1-3)GlcNAc(b1-3)Gal(b1-4)Glc
Summary of the method: as §1

[45] = molecular target: Gal(b1-3)GlcNAc(b1-3)Gal(b1-4)GlcNAc
Summary of the method: as §1

B1: Flo5 (Saccharomyces cerevisiae), P38894 (protein)
chain: MGSSHHHHHHSSGLVPRGSHMSGATEACLPAGQRKSGMNINFYQYSLKDSSTYSNAAYMAYGYASKTKLGSVGGQTDISIDYNIPCVSSSGTFPCPQEDSYGNWGCKGMGACSNSQGIAYWSTDLFGFYTTPTNVTLEMTGYFLPPQTGSYTFSFATVDDSAILSVGGSIAFECCAQEQPPITSTNFTINGIKPWDGSLPDNITGTVYMYAGYYYPLKVVYSNAVSWGTLPISVELPDGTTVSDNFEGYVYSFDDDLSQSNCTIPDPSIH
glycan array binding signal (z-score) [1]: -0.024 | glycan array binding signal (z-score) [2]: -0.132 | glycan array binding signal (z-score) [3]: -0.126 | glycan array binding signal (z-score) [4]: -0.206 | glycan array binding signal (z-score) [5]: -0.136 | glycan array binding signal (z-score) [6]: -0.164 | glycan array binding signal (z-score) [7]: -0.162 | glycan array binding signal (z-score) [8]: -0.047 | glycan array binding signal (z-score) [9]: 0.333 | glycan array binding signal (z-score) [10]: -0.187 | glycan array binding signal (z-score) [11]: 0.19 | glycan array binding signal (z-score) [12]: -0.135 | glycan array binding signal (z-score) [13]: -0.232 | glycan array binding signal (z-score) [14]: -0.092 | glycan array binding signal (z-score) [15]: -0.16 | glycan array binding signal (z-score) [16]: -0.108 | glycan array binding signal (z-score) [17]: -0.103 | glycan array binding signal (z-score) [18]: -0.158 | glycan array binding signal (z-score) [19]: -0.14 | glycan array binding signal (z-score) [20]: -0.217 | glycan array binding signal (z-score) [21]: -0.183 | glycan array binding signal (z-score) [22]: -0.127 | glycan array binding signal (z-score) [23]: -0.184 | glycan array binding signal (z-score) [24]: -0.101 | glycan array binding signal (z-score) [25]: -0.109 | glycan array binding signal (z-score) [26]: 0.012 | glycan array binding signal (z-score) [27]: -0.228 | glycan array binding signal (z-score) [28]: -0.066 | glycan array binding signal (z-score) [29]: -0.092 | glycan array binding signal (z-score) [30]: -0.205 | glycan array binding signal (z-score) [31]: -0.147 | glycan array binding signal (z-score) [32]: -0.163 | glycan array binding signal (z-score) [33]: -0.045 | glycan array binding signal (z-score) [34]: -0.167 | glycan array binding signal (z-score) [35]: -0.155 | glycan array binding signal (z-score) [36]: -0.163 | glycan array binding signal (z-score) [37]: -0.167 | glycan array binding signal (z-score) [38]: -0.152 | glycan array binding signal (z-score) [39]: -0.111 | glycan array binding signal (z-score) [40]: -0.159 | glycan array binding signal (z-score) [41]: -0.092 | glycan array binding signal (z-score) [42]: -0.085 | glycan array binding signal (z-score) [43]: -0.167 | glycan array binding signal (z-score) [44]: -0.166 | glycan array binding signal (z-score) [45]: -0.186
